Drawing on PubChem BioAssay AID463173 (ICCB-Longwood Screening Facility, Harvard Medical School, 2010), this text covers survival for 89 molecules.

In all, about 52,000 compounds went through this assay and about 4,300 (8.3%) were called active. No stated cut-off is given here; in the data, active means survival mostly below about 52% (no sharp cut-off); inactive means mostly above about 56%. This is one part of the list.

The assay has as its system DeltatarO mutant. Put plainly: growth inhibition of S. aureus wild type versus tarO mutant, primary screen, teichoic acid synthesis inhibitors, RN4220, OD600 (AID 463173). The settings on record: OD600, 18 h, stronger effect = lower value, screened at 18.75 µg/mL (by protocol).
Regarding `CC(=O)c1ccc(S(=O)(=O)Nc2cccc(-c3ccc(N4CCCCCC4)nn3)c2)cc1`, the survival is inactive: 97%.

In the case of `CCCC(=O)N1CCN(c2nc3c(OC)ccc(C)c3s2)CC1`, the survival is inactive: 55%.

Turning to `CC(C)(C)OC(=O)N1CCC(c2c(C(=O)N3CCN(C(=O)c4ccco4)CC3)cnn2-c2cccc(F)c2)CC1`, the survival is inactive: 73%.

With `CCOc1ccc(-n2c(SCC(=O)N3CCOCC3)nc3c([nH]c4ccccc43)c2=O)cc1`, the survival was active: 0%.

For the molecule `CC(C)CC(=O)Nc1ccc(Cl)cn1`, the survival was inactive: 76%.

As to `Cc1c(S(=O)(=O)c2cccc(Cl)c2)nnn1-c1cccc(C(F)(F)F)c1`, the survival was inactive: 70%.

On to `Cc1ccc(CNC(=O)C(CC(C)C)NS(=O)(=O)c2ccc3c(c2)oc(=O)n3C)cc1` (centres undefined), for which the survival was inactive: 86%.

With `O=C(NCc1ccc(Cl)cc1)c1cnc(N2CCCCC2)c2ccccc12`, the survival is inactive: 84%.

As to `Cc1cccc(N2CCN(CCNC(=O)C3COc4ccccc4C3)CC2)c1C` (centres undefined), the survival is inactive: 112%.

For the molecule `O=c1cc(CSc2nnc(-c3ccccc3)o2)c2ccccc2[nH]1`, the survival was inactive: 95%.

On to `C/C=C(\C)C(=O)OC1c2c(ccc3ccc(=O)oc23)OC(C)(C)C1OC(C)=O` (centres undefined), for which the survival is inactive: 60%.

Regarding `COc1ccc(CNC(=O)C2CCN(Cc3nc(-c4ccc(Cl)cc4)oc3C)CC2)cc1`, the survival is inactive: 100%.

Turning to `Cc1ccc(S(=O)(=O)NCCS(=O)(=O)N2CCN(c3ccccc3)CC2)cc1`, the survival was inactive: 75%.

As to `Cc1nc(N2CCOCC2)c2c(C(=O)Nc3cccc(C(F)(F)F)c3)c(C)oc2n1`, the survival is inactive: 101%.

Turning to `Cc1ccc(Cc2nc3ccccc3nc2SCC(=O)Nc2ccc3c(c2)OCO3)cc1`, the survival was inactive: 88%.

As for `CSc1ccc(CCNC(=O)CCc2c(C)nc3c(c(C)nn3-c3ccccc3)c2C)cc1`, the survival was inactive: 89%.

As for `O=C(NC1CC(=O)N(c2cccc(F)c2)C1)c1ccc(Br)o1` (centres undefined), the survival is inactive: 101%.

Turning to `CCOC(=O)c1cc(S(=O)(=O)N2CCN(c3ccccc3)CC2)[nH]n1`, the survival was inactive: 77%.

Take `Cc1ccc2nc(N(Cc3cccnc3)C(=O)COc3ccccc3)sc2c1`: the survival was inactive: 113%.

For the molecule `CCOC(=O)Cn1c(=O)oc2cc(S(=O)(=O)N3CCN(c4cccc(C)c4C)CC3)ccc21`, the survival was inactive: 67%.

Turning to `O=C(Nc1c(Cl)cccc1Cl)c1cc(-c2ccc3c(c2)OCO3)on1`, the survival is active: 39%.

Take `COC(=O)c1c(-c2ccc(Cl)cc2)noc1N1CCN(c2ccc(C)cc2C)CC1`: the survival is inactive: 99%.

Turning to `CC(C)c1ccc(NC(=O)C2CCCN(S(=O)(=O)c3cccc4cccnc34)C2)cc1` (centres undefined), the survival is inactive: 71%.

Regarding `CCCCN(C)CCCNC(=O)C1CCN(c2nc3ccc(CC)cc3s2)CC1`, the survival is inactive: 71%.

Regarding `O=C(O)C1C2C=CC(C2)C1C(=O)N(Cc1ccccc1)Cc1ccccc1` (centres undefined), the survival was inactive: 80%.

With `Cc1sc2ncn(CC(=O)N3CCC(C)CC3)c(=O)c2c1C`, the survival was inactive: 77%.

Take `O=C(CSc1nnnn1Cc1ccccc1)c1ccccc1`: the survival is inactive: 81%.

As for `COc1ccc(OC)c(NC(=O)c2noc3c2CCCC3)c1`, the survival is inactive: 99%.

For the molecule `CCOC(=O)Cc1ccc(NC(=O)N2CCOc3ccc(C)cc32)cc1`, the survival is inactive: 80%.

Turning to `CC1=C(c2ccc(C)c(C)c2)S(=O)(=O)N(Cc2ccc(C(=O)NCc3cccc(C)c3)cc2)C1=O`, the survival was inactive: 77%.

With `Cc1cccc(NC(=O)c2oc3ccccc3c2NC(=O)Cc2coc3c(C)c(C)ccc23)c1`, the survival is inactive: 62%.

Consider `CCC(C(=O)Nc1cc(Cl)ccc1OC)n1nc(-c2ccccc2)ccc1=O` (centres undefined), for which the survival is active: 24%.

Take `Cc1ccc(Nc2c(-c3c[nH]c4ccccc34)nc3cc(C)ccn23)cc1`: the survival was active: 80%.

For the molecule `COc1cc(OC)c(OC)cc1/C=C/c1nc2cc3ccccc3cc2c(=O)n1-c1ccc(Cl)cc1`, the survival is inactive: 83%.

`CCOc1ccccc1NC(=O)CSc1nc2c(oc3ccccc32)c(=O)n1-c1ccc(C)c(C)c1`: the survival was inactive: 88%.

With `COc1ccc(-c2nn3c(=O)cc(CN4CCN(C(=O)c5ccc(C(C)(C)C)cc5)CC4)nc3s2)cc1`, the survival was inactive: 91%.

As for `CC(C)OCCCNC(=O)c1ccc2c(c1)N(Cc1c(F)cccc1Cl)C(=O)c1ccccc1S2`, the survival is inactive: 76%.

In the case of `COc1ccc(C(=O)NCC(c2cccnc2)N2CCc3ccccc32)cc1` (centres undefined), the survival was active: 46%.

For `Cc1ccc(Oc2c(C(F)(F)F)oc3c(CN4CCCCC4C)c(O)ccc3c2=O)cc1` (centres undefined), the survival is inactive: 58%.

Consider `CCn1c(NCc2cccc(Cl)c2)nc2ccccc21`, for which the survival was inactive: 102%.

Turning to `COc1cccc(C(=O)NC2=NC(c3ccc(N(C)C)cc3)CC(=O)N2)c1` (centres undefined), the survival is inactive: 56%.

As for `O=C(CSc1nc(-c2ccccc2)cn1-c1ccccc1)Nc1ccccc1`, the survival is inactive: 83%.

Turning to `COc1cc(-c2nc3ccc(C)cn3c2Nc2ccc(Cl)cc2)ccc1O`, the survival is inactive: 42%.

For `O=C(NCCCN1CCCCC1)c1cc(Sc2ccc(Cl)cc2)nc2ccccc12`, the survival was active: 17%.

Regarding `COc1cccc(-c2nnc3n(Cc4ccccc4Cl)c(=O)c4ccccc4n23)c1O`, the survival is inactive: 91%.

On to `O=C(NCc1ccc2c(c1)CCN2C(=O)c1ccncc1)c1ccc(Cl)cc1`, for which the survival was inactive: 95%.

As for `CC(C)Oc1ccc(CNC(=O)CCCn2c(=O)c3cccn3c3cccnc32)cc1`, the survival is inactive: 111%.

As to `Cc1ccc(S(=O)(=O)Nc2c(C)nn(C)c2C)cc1`, the survival was inactive: 89%.

Turning to `COCCN(CCOC)C(=O)c1cc2c(=O)n3ccccc3nc2n1C`, the survival was inactive: 51%.

On to `Cc1c(Cl)cccc1NC(=O)CN1C(=O)CCn2nc(-c3cccn3C)cc21`, for which the survival was inactive: 74%.

On to `O=S(=O)(c1ccc(Br)cc1)c1nnn2c1nc(NCc1cccs1)c1sccc12`, for which the survival is inactive: 66%.

On to `CC(=O)c1ccc(N2CCN(C3C(=O)c4ccccc4N3C(C)=O)CC2)cc1` (centres undefined), for which the survival was inactive: 71%.

Turning to `COc1ccc(-c2cc(C(=O)NCCc3ccccc3)c3cc(C(C)C)ccc3n2)cc1`, the survival is inactive: 76%.

In the case of `COc1ccc(Cl)cc1NC(=O)c1nn(C)c2c1CS(=O)(=O)c1ccccc1-2`, the survival was inactive: 53%.

`CCOc1cc(-c2nc(-c3ccc(-c4ccc(OC)cc4)nc3OC)no2)cc(OCC)c1OCC`: the survival is inactive: 75%.

On to `COCCCNC(=O)C1CCN(c2cc(C)nc3c(-c4ccc(OC)c(OC)c4)c(C)nn23)CC1`, for which the survival is inactive: 68%.

For `CC(=O)N/N=C/c1ccc(C)c(C)c1C`, the survival was inactive: 83%.

Turning to `COc1ccc(-n2cc(C(=O)NCc3cccc(OC)c3)c3ccccc3c2=O)cc1`, the survival was inactive: 110%.

As to `Cc1cc(C)c(C(=O)Nc2ccccc2)c(SCC(=O)Nc2ccc(Br)cc2C)n1`, the survival is active: 38%.

On to `Cc1ccc(Cn2c(C(=O)O)c(CNCCc3ccco3)c3ccc(C)cc32)cc1`, for which the survival was inactive: 81%.

Regarding `COc1ccc(-n2c(=O)c3ccc(C(=O)NCc4ccc(C)cc4)cc3n(CC(=O)Nc3ccc(C)cc3)c2=O)cc1`, the survival is inactive: 81%.

As to `O=C1C2C3C=CC(C3)C2C(=O)N1CN(Cc1ccccc1)CN1C(=O)C2C3C=CC(C3)C2C1=O` (centres undefined), the survival was inactive: 77%.

For the molecule `O=c1[nH]c(SCc2ccc(Br)cc2)nc2c1CCCC2`, the survival was inactive: 52%.

Turning to `Cc1ccc(S(=O)(=O)c2nnn3c2nc(N2CCN(c4ccccc4F)CC2)c2ccccc23)cc1C`, the survival is inactive: 77%.

With `CC(NC(=O)Cn1c(-c2cccs2)cc2cc(F)ccc21)c1ccccc1` (centres undefined), the survival was inactive: 94%.

With `CC1=C(C(=O)Nc2ccccc2C)C(c2ccccn2)n2nc(SCc3ccccc3F)nc2N1` (centres undefined), the survival was inactive: 60%.

For `O=C(CN1CCC(N2CCCCC2)CC1)c1ccc(F)cc1`, the survival is inactive: 96%.

As to `O=C(CSc1nc(=O)n(Cc2ccco2)c2c1CCC2)NCc1ccc(F)cc1`, the survival was inactive: 101%.

Regarding `COc1ccc2nc(NC(=O)c3ccc(S(=O)(=O)N4CCCC(C)C4)cc3)sc2c1` (centres undefined), the survival was inactive: 102%.

Take `N/C(=N\OC(=O)c1cccs1)c1ccccc1`: the survival is inactive: 87%.

For the molecule `Cc1nc2nc(NC(=O)c3ccc(Cl)cc3)[nH]n2c(=O)c1Cc1ccccc1`, the survival is inactive: 105%.

For `CCc1ccc(NC(=O)CSc2nc(=O)n(Cc3ccco3)c3c2CCC3)cc1`, the survival was inactive: 90%.

As for `Cc1cccc(-n2c3nc(=O)n(C)c(=O)c-3cc3ccc(Cl)cc32)c1C`, the survival is inactive: 81%.

For the molecule `Cc1noc2ncnc(NCc3cccc(Cl)c3)c12`, the survival is inactive: 97%.

As for `CCc1c(C)nc2ncnn2c1N1CCC(C(=O)Nc2ccccc2)CC1`, the survival was inactive: 63%.

As to `Cc1c(C(=O)N2CCC(C(=O)Nc3ccc(F)cc3)CC2)sc2nc[nH]c(=O)c12`, the survival was inactive: 62%.

On to `Oc1cccc(Nc2ncnc3sc4c(c23)CCCC4)c1`, for which the survival is inactive: 57%.

As to `CS(=O)(=O)N1CCc2cc(C(=O)NCc3ccccc3)ccc21`, the survival is inactive: 81%.

In the case of `CC(C)(C)C(=O)N1CCN(c2nc3c(F)cccc3s2)CC1`, the survival is inactive: 82%.

Consider `N#Cc1ccccc1/C=C/C(=O)N(CCO)CC(O)c1ccccc1` (centres undefined), for which the survival was inactive: 88%.

As to `COc1ccc(-c2cc(C(=O)Oc3ccc(C)c(C)c3)c3ccccc3n2)cc1`, the survival is active: 40%.

Take `CC(C)(C)C(=O)CSc1nc2ccccc2[nH]1`: the survival is inactive: 85%.

Regarding `Cc1cccn2c(=O)c3cc(C(=O)NCc4ccccc4Cl)sc3nc12`, the survival was inactive: 62%.

In the case of `O=C(Cn1c(=O)n(Cc2ccc3c(c2)OCO3)c(=O)c2ccc(C(=O)NC3CCCCC3)cc21)Nc1ccccc1F`, the survival was inactive: 76%.

Turning to `CCC(C)NC(=O)c1c(-c2ccccc2)c(-c2ccccc2)nn(C)c1=O` (centres undefined), the survival was inactive: 50%.

Consider `Cc1ccc(C(=O)NC2(C(F)(F)F)C(=O)Nc3c2c(=O)[nH]c(=O)n3CCc2ccccc2)cc1` (centres undefined), for which the survival was inactive: 74%.

`CCOC(=O)c1cc(-c2ccccc2)n(CCCC(=O)Nc2ccc(C)cc2C)c1C`: the survival is inactive: 55%.

Turning to `Cc1cccc(-c2nc3nc(C)cc(N4CCN(c5ccccc5)CC4)n3n2)c1`, the survival was inactive: 60%.

`COc1ccc(N2CCN(C(=O)CCn3cnc4onc(-c5ccc(F)cc5)c4c3=O)CC2)cc1`: the survival was inactive: 118%.
